Data: the supplement of paper PMC10126150
Values marked as one replicate rest on one cluster of the flow cell; about a third of the high ones do not repeat.

What follows are sequences tested on ATP (assay: switch fluorescence ratio, 500 uM ATP over buffer (Cy3 cluster intensity, sum of 5 cycles each) (fold (ratio)); higher = stronger signal-on switching upon ATP binding; sequences stand for … in TCGTCGGCAGCGTCAGATGTGTATAAGAGACAGTTTTTTTTTTTTTTTTTTTTTTTTT…TC). Conditions: aptamer strand: ATP DNA aptamer (quencher-CACCTGGGGGAGTATTGCGGAGGAAGG + anchor), 100 nM annealed; ATP concentration: 500 uM; one replicate.
How it was run: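 Per cluster, summed Cy3 intensity from the target cycles was divided by that from the buffer cycles to give the fluorescence ratio, then averaged per switch-domain sequence. Clusters outside 100-1000 RFU were excluded. The Cy3-labelled switching-strand clusters, on a modified Illumina MiSeq flow-cell, were annealed to 100 nM quencher-labelled ATP aptamer and imaged in selection buffer, then after 15 min with 500 uM ATP at 22 °C, for five cycles with NaOH stripping and re-annealing between them.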
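Also: ATP exposure 15 min at 22 °C before imaging.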

Sequence | switch fluorescence ratio
ACTTTCAAAG | 0.994
ACTTTCCGAG | 1.63
ACTTTCGACC | 1.33
ACTTTCGGGT | 1.01
ACTTTGATCT | 1.02
ACTTTGCATA | 1.61
ACTTTGTTG | 0.988
ACTTTTACGA | 1.18
ACTTTTTGA | 1
AGAAAAATA | 1.03
AGAAAACATC | 0.995
AGAAAAGCT | 1.16
AGAAACTGGT | 1.06
AGAAACTTAT | 0.998
AGAAAGCACC | 1.15
AGAAAGCTCG | 1.04
AGAAAGTGCG | 1.03
AGAAATAAGA | 1
AGAAATCTGT | 1.01
AGAAATGAGA | 0.969
AGAAATTAAG | 1
AGAACAGCAA | 1.45
AGAACCAGGG | 1.07
AGAACCCGAC | 1.5
AGAACGGGAA | 1.02

Sequence | switch fluorescence ratio
AGAACTATAG | 1
AGAAGATAAA | 1.04
AGAAGATGCG | 1.02
AGAAGCACGA | 1.15
AGAAGCCCAT | 1.04
AGAAGCGCTA | 0.912
AGAAGCTTGG | 0.978
AGAAGGCTAC | 1.01
AGAAGGGCTA | 0.965
AGAAGGGGCA | 0.997
AGAAGTACAT | 1.05
AGAATGGGCC | 0.986
AGAATTCCTA | 0.995
AGAATTTATG | 0.99
AGACAAGAAT | 1.56
AGACACAGAG | 1.01
AGACACGA | 1.03
AGACACGTGG | 0.962
AGACACTTGG | 0.965
AGACATAAGT | 1.01
AGACATCTGG | 1.01
AGACATGCGG | 1
AGACCAGACG | 0.984
AGACCCCGAG | 1.04
AGACCTATGC | 1.04

Sequence | switch fluorescence ratio
AGACGATTTA | 1.02
AGACGCTATT | 1.2
AGACGCTCG | 0.911
AGACGGTGAC | 1.08
AGACTATTGT | 0.985
AGACTGATTC | 1.01
AGACTTTTTT | 1.09
AGAGAAACGT | 1.03
AGAGAAATAG | 1.01
AGAGAACACA | 1.09
AGAGAAGTAA | 0.972
AGAGAGGGTC | 0.985
AGAGAGTTTC | 1.08
AGAGATAAC | 1.03
AGAGCAAGGG | 1.09
AGAGCCCGCT | 1.01
AGAGCCGTTC | 0.965
AGAGCCTACG | 1.07
AGAGCGACTT | 1.07
AGAGCGCATG | 1.03
AGAGCGGTGA | 0.98
AGAGCTTAAA | 0.986
AGAGGACTTG | 1.05
AGAGGATTCA | 1.01
AGAGGGCCGC | 1.04

Sequence | switch fluorescence ratio
AGAGGGCCGT | 1
AGAGGGTCAT | 0.985
AGAGGTATGT | 0.993
AGAGGTGATC | 0.964
AGAGGTGCAG | 0.994
AGAGGTGCGG | 0.967
AGAGTAACGA | 1.01
AGAGTAATGA | 1.03
AGAGTATTGA | 1.01
AGAGTCCCGG | 1.02
AGAGTGCAGG | 0.995
AGAGTGTACG | 0.978
AGATAAGAGG | 1
AGATACAGAT | 1
AGATACGAAG | 0.962
AGATACTTTA | 0.995
AGATATACGC | 1.04
AGATATAGCC | 0.947
AGATATATG | 1
AGATATTGAG | 0.993
AGATCATACG | 1.07
AGATCGATGG | 1
AGATCGCGAG | 1.02
AGATCGGTCA | 1
AGATCTAAAA | 0.999
